Assay results taken from the supplement of paper PMC4967469.
pIC50: −log10 of the molar value. A lower IC50 marks a more sensitive line; a fit beyond the top or the lowest dose is shown as a bound at that dose. AUC sums up the same curve from the lowest dose to the 256-fold higher top dose: 1 means no effect, lower means more sensitive. For part of these data: A top dose marked as inferred comes from the curve model; the source does not state it. For part of these data: An entry number marks a drug with two screens in the source, which often give different values.

Assays:
Experiment in all cases: Viability of human cancer cell lines after 72 h of drug (GDSC screen)
NSC-207895 = compound: CN1CCN(c2ccc([N+](=O)[O-])c3no[n+]([O-])c23)CC1 [NSC-207895]; settings: top dose 20 µM; top dose inferred
Procedure: (§1)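 Human cancer cell lines in 384-well plates, medium with 10% serum, drug for 72 h over a 256-fold dose range (nine 2-fold or five 4-fold steps up to the top dose). Adherent lines were fixed and stained with the nucleic acid dye Syto60, suspension lines read with resazurin; signal relative to control wells, capped at 0 and 100%. One two-parameter sigmoid per drug and line, fitted in a mixed model over all curves with the slope shared within a line.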

AMG-706 = compound: CC1(C)CNc2cc(NC(=O)c3cccnc3NCc3ccncc3)ccc21 [AMG-706]; settings: top dose 2 µM; top dose inferred
Procedure: as §1

OSI-906 = compound: C[C@]1(O)C[C@@H](c2nc(-c3ccc4ccc(-c5ccccc5)nc4c3)c3c(N)nccn32)C1 [OSI-906]; settings: top dose 2.56 µM; top dose inferred
Procedure: as §1

Cyclopamine = compound: CC1=C2C[C@H]3[C@@H](CC=C4C[C@@H](O)CC[C@@]43C)[C@@H]2CC[C@]12O[C@@H]1C[C@H](C)CN[C@H]1[C@H]2C [Cyclopamine]; settings: top dose 16 µM; top dose inferred
Procedure: as §1

SB-715992 = compound: Cc1ccc(C(=O)N(CCCN)[C@@H](c2nc3cc(Cl)ccc3c(=O)n2Cc2ccccc2)C(C)C)cc1 [SB-715992]; settings: top dose 0.128 µM; top dose inferred
Procedure: as §1

CGP-60474 = compound: OCCCNc1cc(-c2ccnc(Nc3cccc(Cl)c3)n2)ccn1 [CGP-60474]; settings: top dose 0.256 µM; top dose inferred
Procedure: as §1

JNJ-26854165 = compound: c1ccc2c(CCNc3ccc(Nc4ccncc4)cc3)c[nH]c2c1 [JNJ-26854165]; settings: top dose 10 µM
Procedure: as §1

JNK Inhibitor VIII = compound: CCOc1nc(NC(=O)Cc2cc(OC)ccc2OC)cc(N)c1C#N [JNK Inhibitor VIII]; settings: top dose 10 µM; top dose inferred
Procedure: as §1

Docetaxel = compound: CC(=O)O[C@@]12CO[C@@H]1C[C@H](O)[C@@]1(C)C(=O)[C@H](O)C3=C(C)[C@@H](OC(=O)[C@H](O)[C@@H](NC(=O)OC(C)(C)C)c4ccccc4)C[C@@](O)([C@@H](OC(=O)c4ccccc4)[C@H]21)C3(C)C [Docetaxel]; settings: top dose 0.0125 µM
Procedure: as §1

NVP-TAE684 = compound: COc1cc(N2CCC(N3CCN(C)CC3)CC2)ccc1Nc1ncc(Cl)c(Nc2ccccc2S(=O)(=O)C(C)C)n1 [NVP-TAE684]; settings: top dose 2 µM
Procedure: as §1

YM155 = compound: COCC[n+]1c2c(n(Cc3cnccn3)c1C)C(=O)c1ccccc1C2=O [YM155]; settings: top dose 5.12 µM
Procedure: as §1

PHA-665752 = compound: Cc1[nH]c(/C=C2\C(=O)Nc3ccc(S(=O)(=O)Cc4c(Cl)cccc4Cl)cc32)c(C)c1C(=O)N1CCC[C@@H]1CN1CCCC1 [PHA-665752]; settings: top dose 2 µM
Procedure: as §1

FTI-277 = compound: COC(=O)[C@H](CCSC)NC(=O)c1ccc(NC[C@@H](N)CS)cc1-c1ccccc1 [FTI-277]; settings: top dose 1.024 µM; top dose inferred
Procedure: as §1

JQ1 = compound: Cc1sc2c(c1C)C(c1ccc(Cl)cc1)=N[C@@H](CC(=O)OC(C)(C)C)c1nnc(C)n1-2 [JQ1]
Procedure: as §1

Belinostat = compound: O=C(/C=C/c1cccc(S(=O)(=O)Nc2ccccc2)c1)NO [Belinostat]; settings: top dose 20 µM; top dose inferred
Procedure: as §1

[1] = top dose 1 µM, screen: GDSC drug entry 1218, top dose inferred
[2] = top dose 2.56 µM, screen: GDSC drug entry 163

| Cell Line | AUC (NSC-207895) | pIC50 (NSC-207895) | AUC (AMG-706) | pIC50 (AMG-706) | AUC (OSI-906) | pIC50 (OSI-906) | AUC (Cyclopamine) | pIC50 (Cyclopamine) | AUC (SB-715992) | pIC50 (SB-715992) | AUC (CGP-60474) | pIC50 (CGP-60474) | AUC (JNJ-26854165) | pIC50 (JNJ-26854165) | AUC (JNK Inhibitor VIII) | pIC50 (JNK Inhibitor VIII) | AUC (Docetaxel) | pIC50 (Docetaxel) | AUC (NVP-TAE684) | pIC50 (NVP-TAE684) | AUC (YM155) | pIC50 (YM155) | AUC (PHA-665752) | pIC50 (PHA-665752) | AUC (FTI-277) | pIC50 (FTI-277) | AUC (JQ1; [1]) | pIC50 (JQ1; [1]) | AUC (JQ1; [2]) | pIC50 (JQ1; [2]) | AUC (Belinostat) | pIC50 (Belinostat) |
| --- | --- | --- | --- | --- | --- | --- | --- | --- | --- | --- | --- | --- | --- | --- | --- | --- | --- | --- | --- | --- | --- | --- | --- | --- | --- | --- | --- | --- | --- | --- | --- | --- |
| GR-ST (lymphoblastic leukaemia, suspension) | 0.882 | < 4.70 | 0.969 | < 5.70 | 0.932 | < 5.59 | 0.917 | < 4.80 | 0.751 | 7.30 | 0.857 | < 6.59 | 0.722 | 5.51 | 0.926 | < 5.00 | 0.925 | < 7.90 | 0.755 | 6.09 | 0.035 | > 7.70 | 0.97 | < 5.70 | 0.976 | < 5.99 | 0.907 | < 6.00 | 0.656 | 6.32 | 0.375 | 6.28 |
| KS-1 (glioma, adherent) | 0.927 | < 4.70 | 0.962 | < 5.70 | 0.328 | 7.33 | 0.888 | < 4.80 | 0.826 | 6.98 | 0.538 | 7.68 | 0.89 | < 5.00 | 0.976 | < 5.00 | 0.626 | 8.72 | 0.574 | 6.68 | 0.036 | > 7.70 | 0.928 | < 5.70 | 0.932 | < 5.99 | 0.968 | < 6.00 | 0.546 | 6.66 | 0.498 | 5.91 |
| L-363 (myeloma, suspension) | 0.911 | < 4.70 | 0.99 | < 5.70 | 0.815 | 5.93 | 0.932 | < 4.80 | 0.585 | 7.88 | 0.643 | 7.43 | 0.801 | 5.38 | 0.989 | < 5.00 | 0.869 | 8.05 | 0.812 | 6.05 | 0.02 | > 7.70 | 0.99 | < 5.70 | 0.99 | < 5.99 | 0.99 | < 6.00 | 0.77 | 6.07 | 0.339 | 6.32 |
| LB1047-RCC (kidney, adherent) | 0.929 | < 4.70 | 0.813 | 5.90 | 0.798 | 5.85 | 0.962 | < 4.80 | 0.963 | < 6.89 | 0.568 | 7.60 | 0.757 | 5.41 | 0.904 | < 5.00 | 0.858 | 7.90 | 0.76 | 6.10 | 0.092 | > 7.70 | 0.93 | < 5.70 | 0.967 | < 5.99 | 0.979 | < 6.00 | 0.86 | < 5.59 | 0.361 | 6.31 |
| LS-411N (large intestine, adherent) | 0.849 | < 4.70 | 0.979 | < 5.70 | 0.823 | 5.71 | 0.963 | < 4.80 | 0.744 | 7.32 | 0.622 | 7.43 | 0.902 | < 5.00 | 0.982 | < 5.00 | 0.705 | 8.47 | 0.704 | 6.27 | 0.07 | > 7.70 | 0.967 | < 5.70 | 0.941 | < 5.99 | 0.979 | < 6.00 | 0.55 | 6.65 | 0.209 | 6.86 |
| MPP-89 (mesothelioma, adherent) | 0.902 | < 4.70 | 0.972 | < 5.70 | 0.918 | < 5.59 | 0.936 | < 4.80 | 0.959 | < 6.89 | 0.742 | 7.00 | 0.872 | < 5.00 | 0.971 | < 5.00 | 0.679 | 8.54 | 0.691 | 6.29 | 0.648 | 6.03 | 0.966 | < 5.70 | 0.98 | < 5.99 | 0.978 | < 6.00 | 0.899 | < 5.59 | 0.223 | 6.83 |
| MZ1-PC (pancreas, adherent) | 0.853 | < 4.70 | 0.974 | < 5.70 | 0.793 | 5.83 | 0.965 | < 4.80 | 0.635 | 7.68 | 0.639 | – | 0.867 | < 5.00 | 0.98 | < 5.00 | 0.586 | 8.84 | 0.543 | 6.77 | 0.04 | > 7.70 | 0.978 | < 5.70 | 0.949 | < 5.99 | 0.977 | < 6.00 | 0.586 | 6.53 | 0.313 | 6.49 |
| NB(TU)1-10 (neuroblastoma, adherent) | 0.914 | < 4.70 | 0.993 | < 5.70 | 0.46 | 6.90 | 0.992 | < 4.80 | 0.977 | < 6.89 | 0.762 | 7.10 | 0.976 | < 5.00 | 0.986 | < 5.00 | 0.993 | < 7.90 | 0.592 | 6.67 | 0.728 | 5.90 | 0.975 | < 5.70 | 0.989 | < 5.99 | 0.992 | < 6.00 | 0.521 | 6.74 | 0.283 | 6.47 |
